In PubChem BioAssay AID1347120 (National Center for Advancing Translational Sciences (NCATS), 2019):
Among all 390,000 compounds or so, about 930 (0.24%) were called active. This list was built around the results that the source calls inconclusive (neither active nor inactive); the mix of calls is not that of the screen. Calls follow the shape of the dose curve; as a rule, active = well fitted activation curve with a large enough effect; inconclusive = small, poorly fitted or top-dose-only effect; inactive = no such curve, though single readings can be large or run the other way. Where the call is inconclusive, the potency comes from a doubtful curve fit.

Assay: qHTS for Suppressors of FUS Proteinopathy: Primary screen using FUS-linked yeast assay; also: nearly all actives have a fitted effect of over 55% in size
Settings: S. cerevisiae FUS-expressing, OD600, 24 h; Potency: growth rescue; series mostly up to 76.6 µM
In short: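 Cultures pregrown in 2.5% raffinose medium are shifted to minimal medium containing 2% galactose to express toxic FUS. Compounds are tested at several concentrations. After 24hr at 30C, growth is quantified at 600 nm absorbance.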
Potency is read from the fitted curve at half-maximal effect; tags tell the direction and shape of the fitted curve.

Row | Compound | Potency
1 | O=C(OCC(=O)c1ccc[nH]1)c1ccc(Cl)nc1 | inactive
2 | CCC(=C/c1sc2ccc3ccccc3c2[n+]1C)/C=C1\Sc2ccc3ccccc3c2N1C | inconclusive: 5.01 µM [activator, full curve, poor fit]
3 | Cc1nc2ccc(NC(=O)C3CCN(S(=O)(=O)c4cccs4)CC3)cc2s1 | inconclusive: 50.1 µM [activator, single point]
4 | CC(C)Oc1ccc(/C=N/NC(=O)C(CSCc2ccccc2)NC(=O)c2ccc([N+](=O)[O-])cc2)cc1 (stereo unspecified) | inconclusive: 39.8 µM [activator, single point]
5 | CCn1c(C)c(C)c2cc(C(=O)NCCc3ccc(C)cc3)ccc21 | inconclusive: 50.1 µM [activator, single point]
6 | CCOc1ccc(C(=O)N2CCN(Cc3cc(=O)n4nc(-c5ccccc5Cl)sc4n3)CC2)cc1 | inactive
7 | O=C(Nc1ccc2nn(-c3ccccc3)nc2c1)c1ccc(-c2cccc(Cl)c2)o1 | inactive
8 | CCCCN(CC)C(=O)Cn1cnc2ccc(S(=O)(=O)N3CCC(C)CC3)cc2c1=O | inconclusive: 28.2 µM [activator, partial curve, poor fit]
9 | CN(C)c1ccc([C@@H]2[C@@H]([N+](=O)[O-])[C@H]3C=Cc4ccccc4N3[C@H]2C(=O)c2ccc(Cl)cc2)cc1 | inconclusive: 14.1 µM [activator, partial curve]
10 | CCn1c(=O)n(CC)c2cc(N3CCCCC3)c(NC(=O)Nc3cc(Cl)ccc3OC)cc21 | inconclusive: 50.1 µM [activator, single point]
11 | CC(=O)O[C@@H]1[C@@H](O)[C@@H](O)[C@H](Oc2c(-c3ccc(O)cc3)oc3c(CC=C(C)C)c(O)cc(O)c3c2=O)O[C@H]1C | inconclusive: 31.6 µM [activator, partial curve, poor fit]
12 | CCCCOCc1cc(CN2CCN(c3cccc(Cl)c3)CC2)c(O)c2ncccc12 | inconclusive: 15.8 µM [activator, partial curve]
13 | COC(=O)c1ccccc1NC(=O)CSc1nccn1C | inactive
14 | COc1ccccc1NC(=O)CC1Nc2ccccc2NC1=O (stereo unspecified) | inconclusive: 39.8 µM [activator, single point]
15 | Cc1ccc(C(=O)n2nc(-c3ccccc3)nc2NCc2ccco2)cc1 | inactive
16 | N#Cc1cccc(-n2c(-c3ccccc3)nnc2-c2ccccc2)c1C#N | inconclusive: 31.6 µM [activator, partial curve, poor fit]
17 | CCN(CCCNC(=O)c1cc2cc3ccc(OC)cc3nc2s1)c1ccccc1 | inactive
18 | C[C@H](O)[C@@H]1CN2CCc3c([nH]c4c(-c5ccccc5)cccc34)[C@@H]2C[C@@H]1N(C)C(=S)Nc1ccc(C#N)cc1 | inconclusive: 35.5 µM [activator, partial curve, poor fit]
19 | CCOC(=O)C1=C(NC(=S)NC(=O)c2ccccc2)c2ccccc2CC1(C)C | inconclusive: 28.2 µM [activator, partial curve, poor fit]
20 | Cc1ccc(-c2csc(N/N=C/c3ccco3)n2)cc1 | inconclusive: 35.5 µM [activator, partial curve, poor fit]
21 | Cc1ccc(CS(=O)(=O)Cc2ccc(C(=O)NC3CCCC3)o2)cc1 | inactive

Row | Compound | Potency
22 | COc1cccc(Nc2nc(-c3ccccc3)c3cc(C)ccc3n2)c1 | inactive
23 | O=C(Nc1ccc(C(=O)O)cc1)/C(=C\c1ccccc1)NC(=O)c1ccc(Br)cc1 | inconclusive: 28.2 µM [activator, single point]
24 | C[C@@H]1CN([C@@H](C)CO)C(=O)c2cc(NC(=O)Nc3cccc4ccccc34)ccc2O[C@@H](C)CCCCO[C@H]1CN(C)C(=O)c1ccccc1 | inconclusive: 28.2 µM [activator, single point]
25 | COCc1cc(C)nc2oc(C(=O)c3ccccc3)c(N)c12 | inactive
26 | O=C(CSc1c2c(nc3cc(Cl)ccc13)CCCC2)NCc1ccco1 | inconclusive: 44.7 µM [activator, single point]
27 | Cc1ccc(Cl)cc1N1CCN(C(=O)c2ccc(C)c(-n3c(C)nc4cccnc43)c2)CC1 | active: 22.4 µM
28 | CCCCCCN1C[C@H](n2cc(COC(=O)c3ccccc3)nn2)[C@@H](O)C[C@@H]1c1ccc(Cl)cc1 | inconclusive: 20 µM [activator, single point]
29 | Nc1ccc(-c2nnn(CC(=O)N3CCCCC3)n2)cc1 | inconclusive: 3.98 µM [activator, full curve, poor fit]
30 | CCCc1ccc(C(=O)N2CCN(c3ccccc3OCC)CC2)cc1 | inconclusive: 28.2 µM [activator, partial curve, poor fit]
31 | O=C(Nc1nc(-c2ccccn2)cs1)c1cc(S(=O)(=O)N2CCOCC2)ccc1F | inactive
32 | CCCc1ccc(OCCNC(=O)C2CCCCC2)cc1 | inactive
33 | CCOC(=O)[C@@]12CN(C(=O)OC(C)(C)C)CC=C1N(Cc1ccc(OC)cc1)C(=O)[C@H]2CC(=O)NCc1cccs1 | inconclusive: 14.1 µM [activator, partial curve]
34 | COCCCNC(=O)CSc1nc(-c2ccccc2)[nH]c1-c1ccc(C)cc1 | inactive
35 | CCc1c(C)nc2cc(-c3ccc(OC)cc3)[nH]n2c1=O | inactive
36 | COc1ccc(-c2nc(NC(=O)c3ccc(OCC(=O)Nc4ccc(F)cc4)c(OC)c3)sc2C)cc1 | inactive
37 | C[C@@]12CC(=O)NC1N(C(=O)c1cccc(C(F)(F)F)c1)C(c1ccccc1OC(=O)c1cccc(C(F)(F)F)c1)C2 (stereo partly specified) | inconclusive: 28.2 µM [activator, partial curve]
38 | COc1ccc(Br)c(C(=O)Nc2nc3ccccc3[nH]2)c1 | inactive
39 | COc1cccc(NC(=S)N(CCc2c(C)[nH]c3ccc(C)cc23)Cc2cccs2)c1 | inconclusive: 39.8 µM [activator, partial curve, poor fit]
40 | CC(=O)N1CCN(c2ccc(NCc3ccccc3)cc2)CC1 | inconclusive: 22.4 µM [activator, partial curve, poor fit]
41 | COc1cccc(-c2coc3c(C)c4oc(=O)c(CCC(=O)O)c(C)c4cc23)c1 | inconclusive: 31.6 µM [activator, single point]
